The results in this text go back to PubChem BioAssay AID1346428 (National Center for Advancing Translational Sciences (NCATS), 2018).

Several values for one entry are separate records, joined by “and”; a condition that tells them apart may be missing. Equal entries are not always repeated. Hit rate of the full screen: of about 48,000 compounds, about 1,200 (2.5%) were called active. Not shown: some 2% with an inconclusive outcome.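 The calls were made as follows: active = activation of at least 60% and not above a set upper limit (about 1 call in 100 departs from these limits); inconclusive = activation of 40% to 60%, or above that upper limit; inactive = activation under 40%.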 The list shows a part of the results. Some compounds were tested as several samples or in several runs, with calls that do not always agree.

Chain of UniProt O75388 (O75388 whole entry, looked up): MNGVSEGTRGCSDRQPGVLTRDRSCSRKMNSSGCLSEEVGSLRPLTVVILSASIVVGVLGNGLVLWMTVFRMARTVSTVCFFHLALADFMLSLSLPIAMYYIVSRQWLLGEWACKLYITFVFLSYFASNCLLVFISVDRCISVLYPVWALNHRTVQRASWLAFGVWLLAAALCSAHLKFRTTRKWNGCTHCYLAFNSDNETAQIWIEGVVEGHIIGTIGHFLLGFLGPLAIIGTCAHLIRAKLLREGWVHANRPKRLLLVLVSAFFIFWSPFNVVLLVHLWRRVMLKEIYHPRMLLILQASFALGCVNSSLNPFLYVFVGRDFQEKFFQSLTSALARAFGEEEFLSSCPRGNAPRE

In this assay the target is Probable G-protein coupled receptor 32 (Homo sapiens) (UniProt O75388). Description: qHTS for Agonists of Human Resolvin D1 Receptor DRV1. Also: 0% is about no effect. The conditions noted are these: CHO-K1 GPR32 beta-arrestin PathHunter luminescence, 90 min; at 76.9 µM; stronger effect = higher value; zero percent set by DMSO-only wells. Put shortly:
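Luminescent readout of beta-Gal complementation quantifies ligand-induced beta-arrestin association with GPR32 in CHO-K1 cells; 90 min compound incubation at 37 °C, detection 1 h at room temperature.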
In general terms: Quantitative high-throughput screening tests each substance at several concentrations.
Turning to `CCOC(=O)C1CCN(C(=O)Cn2ncc3c([nH]c4ccc(C)cc43)c2=O)CC1`, the activation is inactive: -8.97%.
Next, `CSc1ncc(C(=O)N2CCN(c3ccc(F)cc3)CC2)c(C)n1`: inactive: -3.21%; `COc1ccc(OC)c(C(O)CNC(=O)CN)c1` (configuration not stated): inactive: -6.14%; `CC(S)C(=O)NCC(=O)O` (configuration not stated): inactive: -40.6%.
For `CCCC(=O)O[C@]1(C(=O)COC(=O)CC)CC[C@H]2[C@@H]3CCC4=CC(=O)CC[C@]4(C)[C@H]3[C@@H](O)C[C@@]21C` the value was inactive: 6.42%; for `CN(C)CCN1C(=O)c2ccccc2N(C)c2ccccc21`, inactive: -4.75%; for `CCCC(=O)OC[C@@H](OC(=O)CCC)[C@@H](OC(=O)CCC)[C@H](Cn1c2nc(=O)[nH]c(=O)c-2nc2cc(C)c(C)cc21)OC(=O)CCC`, inactive: -3.31%.
Next, `CCOC(=O)C1CCC(CN(Cc2c(Cl)cccc2Cl)S(=O)(=O)c2ccc(F)cc2)CC1` (configuration not stated): inactive: -18.7%; `COc1cccc(-c2nn(C)c3sc(C(=O)N4CCN(c5cccc(C)c5)C(C)C4)cc23)c1` (configuration not stated): inactive: 20.2%; `CCc1nnc(SCc2nc(-c3ccc(OC)cc3)oc2C)c2cc3sccc3n12`: inactive: -22.8%.
As to `COc1ccccc1CCNC(=O)Cn1ccc2cc(S(=O)(=O)N3CCCCCC3)ccc21`, the activation is inactive: -7.95%.
In the case of `Cc1ccc(C)c(N2CCN(C(=O)c3cc(S(=O)(=O)N4CCCC4)cn3C)CC2)c1`, the activation is inactive: -10.3%.
For `Cc1ccc(Cl)cc1N1CCN(CCNC(=O)Nc2ccc(Cl)cc2)CC1`, the activation is active: 84.1%.
For `COc1ccc(N2CCN(C(=O)c3nc(-c4ccc(Cl)cc4)n4c3CCCCC4)CC2)cc1` the value was inactive: -11.2%; for `CN1CCN(CCCN2c3ccccc3Sc3ccc(C(F)(F)F)cc32)CC1`, active: 63.7% and inactive: 23.3%.
As to `CCOc1ccc(CNC(=O)c2ccc(CS(=O)c3ccccc3)o2)cc1` (configuration not stated), the activation was inactive: -37.7%.
Consider `O=C(C1CCN(S(=O)(=O)c2cccc3nonc23)CC1)N1CCN(c2ccccc2)CC1`, for which the activation was inactive: -3.37%.
Take `COc1ccc(NC(=O)c2nnn(Cc3ccc(Br)cc3F)c2N)c(OC)c1`: the activation was inactive: 35.1%.
`CS(=O)(=O)N1CCc2cc(C(=O)N3CCN(c4ccc(F)cc4)CC3)ccc21`: the activation was inactive: -6.74%.
`Cc1ccccc1NC(=O)Cn1nc(-c2ccc(F)cc2)c2cnc3ccccc3c21`: the activation was inactive: -13.2%.
As for `CC(=O)N1CCCc2ccc(NS(=O)(=O)c3ccc(F)cc3F)cc21`, the activation was inactive: -9.12%.
As to `Cc1ccc(N2CC(NC(=O)c3ccc4c(c3)OCO4)CC2=O)cc1` (configuration not stated), the activation was inactive: -1.62%.
Consider `Cc1ccc(-n2c(SCC(=O)Nc3cccc(Cl)c3)nc3n[nH]c(C)c3c2=N)cc1`, for which the activation is inactive: 5.74%.
For `COC(=O)Nc1nc2ccc(C(=O)c3cccs3)cc2[nH]1`, the activation was inactive: -11.9% and inactive: 5.09%.
For `CCOc1ccc(-c2c(C)nn3c(C)c(C(=O)NCc4ccc(C)o4)cnc23)cc1OCC` the value was inactive: 23.6%; for `Cc1cc(N2CCC(C)CC2)nc2ccc(NC(=O)/C=C/c3cccc(Cl)c3)cc12`, inactive: 7.8%.
As for `Cn1c(Oc2ccc(F)cc2)nc2c1c(=O)n(Cc1ccccc1Cl)c(=O)n2C`, the activation is inactive: 37.7%.
Regarding `O=C(NCCc1ccc(Cl)cc1)c1ccc(CS(=O)(=O)Cc2ccccc2F)o1`, the activation is active: 111%.
Next, `CC(=O)N1CCc2c(sc3c2c(=O)n(-c2ccc(C)cc2)c(=O)n3CC(=O)Nc2ccccc2)C1`: inactive: -7%.
Next, `CCc1ccccc1NC(=O)CSc1nnc(CC)c(CC)n1`: inactive: -6.74%.
For `CSc1ccc(CNC(=O)c2cc3c(=O)n(Cc4ccco4)ccc3nc2C)cc1` the value was inactive: -17.3%; for `Cc1ccc2nc(NC(=O)c3cc(=O)c4cc(Cl)ccc4o3)sc2c1`, inactive: -16.4%; for `COc1ccccc1NC(=O)c1c(NC(=O)c2ccccc2F)sc2c1CCC2`, inactive: 12%.
`COc1ccc(Cn2ccc3nc(C)c(C(=O)Nc4ccc(C)c(F)c4)cc3c2=O)cc1`: the activation is inactive: 20.1%.
Next, `Cc1ccc(-c2cc(C(=O)NCc3ccccc3)c3c(-c4ccc(C)cc4)[nH]nc3n2)cc1`: inactive: -10.5%.
For `COC(=O)c1c(NC(=O)c2ccccc2C(=O)O)sc2c1CCCC2` the value was inactive: -4.13%; for `COC(=O)c1c(C)sc(-c2c(-c3cccc(Cl)c3)[nH]c3c2c(=O)[nH]c(=O)n3C)c1O`, inactive: -8.25%.
For `Cc1cc(C)cc(NC(=O)c2sc3nc(-c4cc5ccccc5oc4=O)[nH]c(=O)c3c2C)c1`, the activation was inactive: -3.61%.
Take `CCc1cccc(C)c1NC(=O)C(C)Sc1nc2c(c(=O)[nH]1)CCCC2` (configuration not stated): the activation was inactive: -8.9%.
For `COc1ccccc1C(=O)Nc1nnc(SCc2cc(=O)n3ccc(C)cc3n2)s1` the value was inactive: -4.38%; for `Cc1ccc(OCc2ccc(-c3nc(C#N)c(N4CCC(C)CC4)o3)o2)cc1`, inactive: -22.1%.
For `COc1ccc(-c2noc(N3CCN(c4cccc(C)c4C)CC3)n2)cc1OC` the value was inactive: 0.633%; for `COc1ccc(CCNC(=O)CCc2c(C)nc3c(c(C)nn3-c3ccccc3)c2C)c(OC)c1`, inactive: -5.4%; for `Cc1cccc(N(C)C(=S)Oc2ccc3c(c2)CCC3)c1`, inactive: -0.135%.
Next, `CCCNC(=O)CCC(=O)N1Cc2ccccc2Oc2ncccc21`: inactive: -9.79%.
As to `C=CC(=O)Nc1cc2c(Nc3ccc(F)c(Cl)c3)ncnc2cc1OCCCN1CCOCC1`, the activation was inactive: 1.27%.
With `CCc1ccccc1NC(=O)C1CCN(C2=NS(=O)(=O)C(c3ccc(C)c(C)c3)=C2C)CC1`, the activation is active: 89.4%.
For `COc1ccc(C(=O)CN2C(=O)N(c3cc(C)ccc3C)S(=O)(=O)c3ccccc32)cc1` the value was inactive: -10.7%; for `CCOC(=O)c1c(C)oc2nc(C)nc(NC(C)c3ccccc3)c12` (configuration not stated), inactive: 1.03%; for `Cc1cccc(OCC(=O)Nc2ccc3c(c2)nc(CCNC(=O)c2ccco2)n3C)c1`, inactive: -2.44%.
Next, `Cc1nc2c3ccccc3nc(NNC(=O)CCC(=O)N3CCN(c4ccccc4)CC3)n2n1`: inactive: -3.43%.
For `CC1=C(C(=O)OCc2ccc(C)cc2)C(c2ccccc2Cl)CC(=O)N1` (configuration not stated) the value was inactive: 27.3%; for `CNC[C@H](O)c1ccc(O)c(O)c1`, inactive: 40.6% and inactive: -1.68%.
On to `Cc1ccccc1-c1noc(CSc2nnc(-c3ccncc3)n2-c2ccc(F)cc2)n1`, for which the activation was inactive: -10.1%.
Next, `Cc1ccc(OCCCCn2c(CCNC(=O)C(C)(C)C)nc3ccccc32)cc1`: inactive: 1.55%.
Next, `Cc1sc2c(c1C)c(=O)n(-c1cccc(C(F)(F)F)c1)c(=O)n2Cc1ccccc1C#N`: inactive: -4.5%; `Cc1ccccc1NC(=O)CN1C(=O)CCn2nc(-c3cccn3C)cc21`: inactive: -17.3%.
Turning to `CCn1cc(C(=O)NCc2ccccc2Cl)c(=O)c2cc(S(=O)(=O)N3CCCCC3)ccc21`, the activation is inactive: 8.96%.
For `Cc1ncc(CO)c2c1Oc1nc(-c3ccccc3)nc(SCC(=O)Nc3cccc(C(F)(F)F)c3)c1C2` the value was inactive: 2.53%.
Take `CCOc1ccc(N(CC)C(=O)CSc2n[nH]c(-c3ccccc3)n2)cc1`: the activation was inactive: -3.69%.
Next, `O=C(CSc1n[nH]c(-c2ccccc2Cl)n1)N1CCN(c2ccccc2F)CC1`: inactive: -6.18%.
For `O=C(NC1CCCC1)c1ccc2c(c1)N(Cc1ccccc1F)C(=O)c1ccccc1S2` the value was inactive: -21%; for `COc1ccc(-c2coc3c2c(C)cc2oc(=O)cc(C)c23)cc1`, inactive: 5.06%; for `O=C(Cc1ccccc1)Nc1cccc(-c2nc3cccnc3s2)c1`, inactive: -13.8%.
As for `CC1=C(C(=O)Nc2cccnc2)C(c2ccccc2)n2nc(SCc3ccccc3F)nc2N1` (configuration not stated), the activation was inactive: 13.7%.
For `COc1ccc(CCN2C(=O)N(c3ccc(F)cc3)C(=O)C2CC(=O)Nc2ccc(F)c(F)c2)cc1` (configuration not stated) the value was inactive: -4.54%; for `CCOc1ccc(N(CC(=O)NCc2ccc(Cl)cc2)S(=O)(=O)c2c(C)noc2C)cc1`, inactive: -8.33%.
For `COCCCNC(=O)C1CCC(Cn2c(=O)c3sccc3n(Cc3ccc(F)cc3)c2=O)CC1` (configuration not stated) the value was inactive: -1.57%.
Consider `Cc1cc(NC(=O)Nc2csc3c2CCCC3)ccc1Br`, for which the activation is inactive: -1.37%.
Next, `Cc1c(NC(=O)c2ccc(N3CCC(C)CC3)c([N+](=O)[O-])c2)cccc1-c1nc2ccccc2o1`: inactive: -14.8%.
Next, `Cc1ccc(C(=O)Nc2ccc(OCc3cc(=O)n4c5c(sc4n3)CCCC5)cc2)cc1`: inactive: 6.03%; `Cc1cccc(N2CCN(C(=O)c3oc(=O)c4ccccc4c3-c3ccccc3)CC2)c1C`: inactive: -1.3%; `COc1ccc(-c2nc3scc(CCNS(=O)(=O)c4ccc(NC(C)=O)cc4)n3n2)cc1`: inactive: 9.76%.
Next, `CCN(CC)CCNC(=O)c1c(C)[nH]c(/C=C2\C(=O)Nc3ccc(F)cc32)c1C`: inactive: -4.86%.
Take `COc1cc2nc(SCC(=O)Nc3ccccc3F)n3nc(-c4ccccc4)nc3c2cc1OC`: the activation was inactive: 17.7%.
For `CCOC(=O)c1ccc(NC2SC(=O)N(Cc3cccc(C(=O)O)c3)C2=O)cc1` (configuration not stated), the activation is inactive: -71%.
On to `CCc1ccc(NC(=O)CSc2nc3c(sc4ccccc43)c(=O)n2CCCOC(C)C)cc1`, for which the activation is inactive: -4.39%.
Next, `CCOc1ccc(Cn2c(CNS(=O)(=O)c3cccc(Cl)c3)nc3cccnc32)cc1`: inactive: -7.09%; `COc1ccc(-c2nc3ccc(NS(=O)(=O)c4ccc(Cl)cc4)cc3o2)cc1`: active: 79.5%.
Next, `Cc1ccc(CNC(=O)c2ccc(CSCc3ccccc3C)o2)cc1`: inactive: -27.3%; `COc1ccccc1C(=O)N1CCN(Cc2cc(=O)oc3cc(C)ccc23)CC1`: inactive: -6.1%.
For `COc1ccc(-n2cc(C(=O)NCc3ccccc3Cl)c3ccccc3c2=O)cc1` the value was inactive: -19.5%.
